# Test results published in the supplement of paper PMC8728848.
# The list shows a part of the results.
# Key:
# Test in all cases: glycan array binding signal (z-score within array); higher = stronger binding
# Settings in all cases: glycan notation: IUPAC condensed, linker removed
# [1] = target: Glc(a1-2)Glc
# Outline: (§1)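 Glycan array data were curated from 3228 arrays in the Consortium for Functional Glycomics database and kept only where the protein sequence was available. Glycan names were converted to IUPAC-condensed notation, and columns mapping to the same glycan were averaged. The binding signal is a within-array Z-score, averaged across arrays of the same protein sequence at different concentrations or buffers and across linkers. Negative Z-scores can be read as non-binding.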
# [2] = target: Glc(a1-2)Glc(a1-2)Glc
# Outline: as §1
# [3] = target: Glc(a1-2)Glc(a1-2)Glc(a1-2)Glc
# Outline: as §1
# [4] = target: Glc(a1-2)Glc(a1-2)Glc(a1-2)Glc(a1-2)Glc
# Outline: as §1
# [5] = target: Glc(a1-2)Glc(a1-2)Glc(a1-2)Glc(a1-2)Glc(a1-2)Glc
# Outline: as §1
# [6] = target: Glc(a1-2)Glc(a1-2)Glc(a1-2)Glc(a1-2)Glc(a1-2)Glc(a1-2)Glc
# Outline: as §1
# [7] = target: Glc(a1-2)Glc(a1-2)Glc(a1-2)Glc(a1-2)Glc(a1-2)Glc(a1-2)Glc(a1-2)Glc
# Outline: as §1
# [8] = target: Glc(a1-2)Glc(a1-2)Glc(a1-2)Glc(a1-2)Glc(a1-2)Glc(a1-2)Glc(a1-2)Glc(a1-2)Glc
# Outline: as §1
# [9] = target: Glc(a1-3)Glc
# Outline: as §1
# [10] = target: Glc(a1-3)Glc(a1-3)Glc
# Outline: as §1
# [11] = target: Glc(a1-3)Glc(a1-3)Glc(a1-3)Glc
# Outline: as §1
# [12] = target: Glc(a1-3)Glc(a1-3)Glc(a1-3)Glc(a1-3)Glc
# Outline: as §1
# [13] = target: Glc(a1-3)Glc(a1-3)Glc(a1-3)Glc(a1-3)Glc(a1-3)Glc
# Outline: as §1
# [14] = target: Glc(a1-3)Glc(a1-3)Glc(a1-3)Glc(a1-3)Glc(a1-3)Glc(a1-3)Glc
# Outline: as §1
# [15] = target: Glc(a1-3)Glc(a1-3)Glc(a1-3)Glc(a1-3)Glc(a1-3)Glc(a1-3)Glc(a1-3)Glc
# Outline: as §1
# [16] = target: Glc(a1-3)Glc(a1-3)Glc(a1-3)Glc(a1-3)Glc(a1-3)Glc(a1-3)Glc(a1-3)Glc(a1-3)Glc
# Outline: as §1
# [17] = target: Glc(a1-3)Glc(a1-3)Glc(a1-3)Glc(a1-3)Glc(a1-3)Glc(a1-3)Glc(a1-3)Glc(a1-3)Glc(a1-3)Glc
# Outline: as §1
# [18] = target: Glc(a1-3)Glc(a1-3)Glc(a1-3)Glc(a1-3)Glc(a1-3)Glc(a1-3)Glc(a1-3)Glc(a1-3)Glc(a1-3)Glc(a1-3)Glc
# Outline: as §1
# [19] = target: Glc(a1-3)Glc(a1-3)Glc(a1-3)Glc(a1-3)Glc(a1-3)Glc(a1-3)Glc(a1-3)Glc(a1-3)Glc(a1-3)Glc(a1-3)Glc(a1-3)Glc
# Outline: as §1
# [20] = target: Glc(a1-3)Glc(a1-3)Glc(a1-3)Glc(a1-3)Glc(a1-3)Glc(a1-3)Glc(a1-3)Glc(a1-3)Glc(a1-3)Glc(a1-3)Glc(a1-3)Glc(a1-3)Glc
# Outline: as §1
# [21] = target: Glc(a1-4)Glc
# Outline: as §1
# [22] = target: Glc(a1-4)Glc(a1-4)Glc
# Outline: as §1
# [23] = target: Glc(a1-4)Glc(a1-4)Glc(a1-4)Glc
# Outline: as §1
# [24] = target: Glc(a1-4)Glc(a1-4)Glc(a1-4)Glc(a1-4)Glc
# Outline: as §1
# [25] = target: Glc(a1-4)Glc(a1-4)Glc(a1-4)Glc(a1-4)Glc(a1-4)Glc
# Outline: as §1
# [26] = target: Glc(a1-4)Glc(a1-4)Glc(a1-4)Glc(a1-4)Glc(a1-4)Glc(a1-4)Glc
# Outline: as §1
# [27] = target: Glc(a1-4)Glc(a1-4)Glc(a1-4)Glc(a1-4)Glc(a1-4)Glc(a1-4)Glc(a1-4)Glc
# Outline: as §1
# [28] = target: Glc(a1-4)Glc(a1-4)Glc(a1-4)Glc(a1-4)Glc(a1-4)Glc(a1-4)Glc(a1-4)Glc(a1-4)Glc
# Outline: as §1
# [29] = target: Glc(a1-4)Glc(a1-4)Glc(a1-4)Glc(a1-4)Glc(a1-4)Glc(a1-4)Glc(a1-4)Glc(a1-4)Glc(a1-4)Glc
# Outline: as §1
# [30] = target: Glc(a1-4)Glc(a1-4)Glc(a1-4)Glc(a1-4)Glc(a1-4)Glc(a1-4)Glc(a1-4)Glc(a1-4)Glc(a1-4)Glc(a1-4)Glc
# Outline: as §1
# [31] = target: Glc(a1-4)Glc(a1-4)Glc(a1-4)Glc(a1-4)Glc(a1-4)Glc(a1-4)Glc(a1-4)Glc(a1-4)Glc(a1-4)Glc(a1-4)Glc(a1-4)Glc
# Outline: as §1
# [32] = target: Glc(a1-4)Glc(a1-4)Glc(a1-4)Glc(a1-4)Glc(a1-4)Glc(a1-4)Glc(a1-4)Glc(a1-4)Glc(a1-4)Glc(a1-4)Glc(a1-4)Glc(a1-4)Glc
# Outline: as §1
# [33] = target: Glc(a1-4)Glc(a1-6)Glc
# Outline: as §1
# [34] = target: Glc(a1-6)Glc
# Outline: as §1
# [35] = target: Glc(a1-6)Glc(a1-4)Glc
# Outline: as §1
# [36] = target: Glc(a1-6)Glc(a1-4)Glc(a1-4)Glc
# Outline: as §1
# [37] = target: Glc(a1-6)Glc(a1-4)Glc(a1-4)Glc(a1-6)Glc(a1-4)Glc(a1-4)Glc
# Outline: as §1
# [38] = target: Glc(a1-6)Glc(a1-6)Glc
# Outline: as §1
# [39] = target: Glc(a1-6)Glc(a1-6)Glc(a1-6)Glc
# Outline: as §1
# [40] = target: Glc(a1-6)Glc(a1-6)Glc(a1-6)Glc(a1-6)Glc
# Outline: as §1
# [41] = target: Glc(a1-6)Glc(a1-6)Glc(a1-6)Glc(a1-6)Glc(a1-6)Glc
# Outline: as §1
# [42] = target: Glc(a1-6)Glc(a1-6)Glc(a1-6)Glc(a1-6)Glc(a1-6)Glc(a1-6)Glc
# Outline: as §1
# [43] = target: Glc(a1-6)Glc(a1-6)Glc(a1-6)Glc(a1-6)Glc(a1-6)Glc(a1-6)Glc(a1-6)Glc
# Outline: as §1
# [44] = target: Glc(a1-6)Glc(a1-6)Glc(a1-6)Glc(a1-6)Glc(a1-6)Glc(a1-6)Glc(a1-6)Glc(a1-6)Glc
# Outline: as §1
# [45] = target: Glc(a1-6)Glc(a1-6)Glc(a1-6)Glc(a1-6)Glc(a1-6)Glc(a1-6)Glc(a1-6)Glc(a1-6)Glc(a1-6)Glc
# Outline: as §1
# [46] = target: Glc(a1-6)Glc(a1-6)Glc(a1-6)Glc(a1-6)Glc(a1-6)Glc(a1-6)Glc(a1-6)Glc(a1-6)Glc(a1-6)Glc(a1-6)Glc
# Outline: as §1
# [47] = target: Glc(a1-6)Glc(a1-6)Glc(a1-6)Glc(a1-6)Glc(a1-6)Glc(a1-6)Glc(a1-6)Glc(a1-6)Glc(a1-6)Glc(a1-6)Glc(a1-6)Glc
# Outline: as §1
# [48] = target: Glc(a1-6)Glc(a1-6)Glc(a1-6)Glc(a1-6)Glc(a1-6)Glc(a1-6)Glc(a1-6)Glc(a1-6)Glc(a1-6)Glc(a1-6)Glc(a1-6)Glc(a1-6)Glc
# Outline: as §1
# [49] = target: Glc(b1-2)Glc
# Outline: as §1
# [50] = target: Glc(b1-2)Glc(b1-2)Glc
# Outline: as §1
# [51] = target: Glc(b1-2)Glc(b1-2)Glc(b1-2)Glc
# Outline: as §1
# [52] = target: Glc(b1-2)Glc(b1-2)Glc(b1-2)Glc(b1-2)Glc
# Outline: as §1
# [53] = target: Glc(b1-2)Glc(b1-2)Glc(b1-2)Glc(b1-2)Glc(b1-2)Glc
# Outline: as §1
# [54] = target: Glc(b1-2)Glc(b1-2)Glc(b1-2)Glc(b1-2)Glc(b1-2)Glc(b1-2)Glc
# Outline: as §1
# [55] = target: Glc(b1-2)Glc(b1-2)Glc(b1-2)Glc(b1-2)Glc(b1-2)Glc(b1-2)Glc(b1-2)Glc
# Outline: as §1
# [56] = target: Glc(b1-2)Glc(b1-2)Glc(b1-2)Glc(b1-2)Glc(b1-2)Glc(b1-2)Glc(b1-2)Glc(b1-2)Glc
# Outline: as §1
# [57] = target: Glc(b1-2)Glc(b1-2)Glc(b1-2)Glc(b1-2)Glc(b1-2)Glc(b1-2)Glc(b1-2)Glc(b1-2)Glc(b1-2)Glc
# Outline: as §1
binder,measurement,setting,value
"laminarinase (Bacillus halodurans), Q9KBL8 (protein) EETIELEGEVIPARLLSTKVKALNYDDYHNVLIDRCVEGGESIRGLGDGSWIAFHDINLEQPTNLLTVRAANENKQAVLEIRADRVDGPLVSQSVIPPTGGLQAWTTVTAQVNGETSEIRDLYLVFKGEFQLSWFSFS",glycan array binding signal (z-score),[1],-0.688
same,glycan array binding signal (z-score),[2],-0.688
same,glycan array binding signal (z-score),[3],-0.688
same,glycan array binding signal (z-score),[4],-0.656
same,glycan array binding signal (z-score),[5],-0.688
same,glycan array binding signal (z-score),[6],-0.688
same,glycan array binding signal (z-score),[7],-0.688
same,glycan array binding signal (z-score),[8],-0.688
same,glycan array binding signal (z-score),[9],-0.688
same,glycan array binding signal (z-score),[10],-0.688
same,glycan array binding signal (z-score),[11],-0.688
same,glycan array binding signal (z-score),[12],-0.688
same,glycan array binding signal (z-score),[13],-0.686
same,glycan array binding signal (z-score),[14],-0.672
same,glycan array binding signal (z-score),[15],-0.639
same,glycan array binding signal (z-score),[16],-0.633
same,glycan array binding signal (z-score),[17],-0.658
same,glycan array binding signal (z-score),[18],-0.679
same,glycan array binding signal (z-score),[19],-0.654
same,glycan array binding signal (z-score),[20],-0.636
same,glycan array binding signal (z-score),[21],-0.688
same,glycan array binding signal (z-score),[22],-0.688
same,glycan array binding signal (z-score),[23],-0.687
same,glycan array binding signal (z-score),[24],-0.687
same,glycan array binding signal (z-score),[25],-0.688
same,glycan array binding signal (z-score),[26],-0.682
same,glycan array binding signal (z-score),[27],-0.675
same,glycan array binding signal (z-score),[28],-0.679
same,glycan array binding signal (z-score),[29],-0.679
same,glycan array binding signal (z-score),[30],-0.679
same,glycan array binding signal (z-score),[31],-0.678
same,glycan array binding signal (z-score),[32],-0.678
same,glycan array binding signal (z-score),[33],-0.688
same,glycan array binding signal (z-score),[34],-0.688
same,glycan array binding signal (z-score),[35],-0.688
same,glycan array binding signal (z-score),[36],-0.688
same,glycan array binding signal (z-score),[37],-0.688
same,glycan array binding signal (z-score),[38],-0.688
same,glycan array binding signal (z-score),[39],-0.688
same,glycan array binding signal (z-score),[40],-0.688
same,glycan array binding signal (z-score),[41],-0.688
same,glycan array binding signal (z-score),[42],-0.688
same,glycan array binding signal (z-score),[43],-0.684
same,glycan array binding signal (z-score),[44],-0.674
same,glycan array binding signal (z-score),[45],-0.679
same,glycan array binding signal (z-score),[46],-0.611
same,glycan array binding signal (z-score),[47],-0.676
same,glycan array binding signal (z-score),[48],-0.688
same,glycan array binding signal (z-score),[49],-0.539
same,glycan array binding signal (z-score),[50],-0.286
same,glycan array binding signal (z-score),[51],0.121
same,glycan array binding signal (z-score),[52],1.6
same,glycan array binding signal (z-score),[53],1.8
same,glycan array binding signal (z-score),[54],1.4
same,glycan array binding signal (z-score),[55],1.39
same,glycan array binding signal (z-score),[56],2.57
same,glycan array binding signal (z-score),[57],1.26
